Here are results for 60 compounds from PubChem BioAssay AID1508642 (National Center for Advancing Translational Sciences (NCATS), 2021).

About 200 (0.47%) of roughly 43,000 compounds were called active. Another 12% or so got no clear call; they are omitted. Calls follow the shape of the dose curve; as a rule, active = well fitted cell-killing curve with a large enough effect; inconclusive = small, poorly fitted or top-dose-only effect, or effect the other way; inactive = flat fitted curve, though single readings scatter. The list shows a part of the results.
% is scaled to controls: 0 for no effect and ±100 for the full control effect.

This assay in a line: Cell viability qHTS assay in S16 Pmp22-F2sN cells. Also: nearly all actives have a fitted effect of over 65% in size. The settings on record: S16 Pmp22-F2sN Schwann cells viability, CellTiter-Glo, 24 h; series mostly up to 57.5 µM; activity change, negative = cytotoxicity: at the top concentration. In a few lines: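 Viability was measured by CellTiter-Glo luminescence (15 min, room temperature). This followed 24 h at 37 °C of compound exposure (23 nL pin transfer) in S16 Pmp22-F2sN Schwann cells, 500-1,000 per well.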
For the compound `Cc1cc(NC(=O)N2CCC(CN3CCCCCC3)CC2)ccc1Br`, the “activity change, negative = cytotoxicity” value is inactive: -13.4%. Turning to `COc1cccc(NC(=O)c2c(C)nn(-c3cccc(C)c3)c2-n2cccc2)c1`, the “activity change, negative = cytotoxicity” value was inactive: -0.265%. With `COc1ccc(N2CCN(C(CNS(=O)(=O)c3ccc(OC)c(C)c3)c3ccco3)CC2)cc1` (stereo not given) the figure was inactive: -6.36%. The figure for `COc1ccc(C)cc1-n1c(-c2ccc(Cl)cc2)cc2c1CC(C)(C)CC2=O` is inactive: -1.36%; for `COc1ccc(-c2nc(Cn3c(=O)cc(C)c4c(C)nn(-c5ccccc5)c43)c(C)o2)cc1OC` it is inactive: -6.03%; for `Nc1c(C(=O)Nc2ccccc2Br)sc2nc(-c3cccs3)ccc12` it is inactive: 20%. The figure for `O=C(CSc1nc2c([nH]c3ccccc32)c(=O)n1-c1ccccc1)Nc1ccc2c(c1)OCO2` is inactive: -6.91%. `O=S(=O)(c1ccc(Cl)cc1)c1nnn2c1nc(NC1CCCC1)c1sccc12`: the “activity change, negative = cytotoxicity” value was inactive: -11%. Regarding `CCC1Sc2ccccc2N(CC(=O)NCc2ccc(C)cc2)C1=O` (stereo not given), the “activity change, negative = cytotoxicity” value is inactive: 1.5%. With `CCn1cc(C(=O)NCCCOC(C)C)c(=O)c2cc(S(=O)(=O)N3CCOCC3)ccc21` the figure was inactive: 6.81%; with `CCc1ccc(OCC2c3cc(OC)c(OC)cc3CCN2C(=O)c2ccc(S(=O)(=O)N3CCCC3)cc2)cc1` (stereo not given), inactive: 0.585%; with `COc1ccc(NC(=O)CSc2ncc3c(n2)-c2ccccc2N(Cc2ccc(C)cc2)S3(=O)=O)cc1Cl`, inactive: 21.3%. With `Cc1ccc(N(C)C(=O)c2sc3nc4n(c(=O)c3c2C)CCCC4)cc1C` the figure was inactive: -8.28%; with `COCCCn1c(=O)c2sccc2n2c(CCCC(=O)NCc3cccc(OC)c3)nnc12`, inactive: 17.6%.

`CCOC(=O)C1CCN(C(=O)c2cc3sc(C)cc3n2C)CC1`: the “activity change, negative = cytotoxicity” value was inactive: -1.8%. With `CCOc1ccc(-c2cccc(NS(=O)(=O)c3ccc(C)s3)c2)nn1` the figure was inactive: -1.06%; with `NC(=O)C1CCN(S(=O)(=O)c2cc3c(cc2Cl)NC(=O)CO3)CC1`, inactive: 18.1%. With `CCN1C(=O)c2ccccc2S(=O)(=O)c2ccc(C(=O)NCc3ccccc3)cc21` the figure was inactive: -0.617%; with `O=C(CSc1ncc(-c2ccccc2)[nH]1)Nc1ccccc1`, inactive: 0.981%.

As for `CCOc1ccc(NS(=O)(=O)c2c(C)nc3sc(C)c(C)n3c2=O)cc1`, the “activity change, negative = cytotoxicity” value is inactive: -26.9%.

On to `CCOC(=O)C1CCN(C(=O)c2ccccc2NC(=O)c2nsc3ccccc23)CC1`, for which the “activity change, negative = cytotoxicity” value is inactive: 1.7%. The figure for `CCOC(=O)C1CCC(CN(Cc2ccc(Cl)cc2)S(=O)(=O)c2cccc(Cl)c2C)CC1` (stereo not given) is inactive: 1.77%. Regarding `Cc1nc2nc(NC(=O)c3ccc(C(C)(C)C)cc3)[nH]n2c(=O)c1C`, the “activity change, negative = cytotoxicity” value was inactive: 1.79%. The figure for `CCCCCCC(=O)Nc1ccc2nc3c(=O)n(C)c(=O)n(C)c3nc2c1C` is inactive: 7.01%. `CCCc1cnc2c(c1SCC(=O)NCc1ccc(C)cc1)c(=O)n(C)c(=O)n2C`: the “activity change, negative = cytotoxicity” value is inactive: -3.5%. For `CCOC(=O)c1ccc(N2C(=O)c3n[nH]c(-c4ccco4)c3C2c2ccc(C(=O)OC)cc2)cc1` (stereo not given), the “activity change, negative = cytotoxicity” value was inactive: -21.4%. Take `CC(=O)Nc1cccc(-c2nc(-c3ccccc3)no2)c1`: the “activity change, negative = cytotoxicity” value is inactive: -22.3%. With `O=C(c1ccc2c(c1)N(Cc1ccc(Cl)cc1)C(=O)c1ccccc1S2(=O)=O)N1CCCC1` the figure was inactive: 11.9%; with `COC(=O)c1ccccc1NC(=O)[C@H]1O[C@@H]2OC(C)(C)O[C@@H]2[C@H]2OC(C)(C)O[C@H]21`, inactive: 7.19%; with `Cc1cc(C)cc(OCC(=O)Nc2cccc3cccnc23)c1`, inactive: -1.89%. The figure for `CCOc1ccc(CNC(=O)c2oc3c(c2C)-c2nn(Cc4cccc(Cl)c4)cc2CC3)cc1` is inactive: -11.2%; for `COc1ccc(C)c2sc(NC(=O)c3ccc(S(=O)(=O)N(C)C)cc3)nc12` it is inactive: 10.2%.

Consider `COc1ccccc1CCNC(=O)Cc1c(C)c2cc(Cl)c(O)cc2oc1=O`, for which the “activity change, negative = cytotoxicity” value is inactive: 5.16%.

Consider `CC(C)c1ccc(S(=O)(=O)N2CCN(Cc3cccc(F)c3)CC2)cc1`, for which the “activity change, negative = cytotoxicity” value was inactive: -5.27%. Take `CCc1ccc(S(=O)(=O)c2nnn3c2nc(N2CCN(c4ccccc4)CC2)c2cc(Cl)ccc23)cc1`: the “activity change, negative = cytotoxicity” value was inactive: 3.59%. With `CCCc1cc(=O)oc2c3c(ccc12)OCN(Cc1ccccc1OC)C3` the figure was inactive: 19.3%. Consider `CN(C(=O)Cn1nc(Cc2cccnc2)c2ccccc2c1=O)c1cccc(C(F)(F)F)c1`, for which the “activity change, negative = cytotoxicity” value is inactive: 17.8%. As to `CCN(CC)C(=O)Cn1c(=O)n(CCCCCC(=O)NCc2ccc3c(c2)OCO3)c(=O)c2sccc21`, the “activity change, negative = cytotoxicity” value is inactive: 0.958%. For `O=c1c2sc3ccccc3c2n(Cc2cccc(F)c2)c(=O)n1CCc1ccccc1`, the “activity change, negative = cytotoxicity” value was inactive: 15.5%. The figure for `CCC(=O)OCc1cc(=O)n2nc(C3CC3)sc2n1` is inactive: 17.6%. In the case of `Cc1ccc(CNC(=O)c2ccc(N3CCCC3)c(NC(=O)Nc3ccc(C)cc3)c2)cc1`, the “activity change, negative = cytotoxicity” value was inactive: -0.255%. Turning to `Cc1ccc(NC(=O)CN2C(=O)COc3ccc(S(=O)(=O)N4CCCCCC4)cc32)c(C)c1`, the “activity change, negative = cytotoxicity” value was inactive: -1.77%. With `Cc1ccc(CNC(=O)C(=O)Nc2c3c(nn2-c2ccc(F)cc2)CSC3)cc1`, the “activity change, negative = cytotoxicity” value is inactive: -3.32%. `CC(C)c1cnc2c(c1SCC(=O)NC(C)(C)C)c(=O)n(C)c(=O)n2C`: the “activity change, negative = cytotoxicity” value is inactive: 19.1%. For `CCOc1ccc(N(C)C(=O)c2oc(=O)c3ccccc3c2-c2ccccc2)cc1`, the “activity change, negative = cytotoxicity” value is inactive: -8.95%. The figure for `CCc1ccc(-c2nc(CS(=O)CC(=O)NCCc3ccc(C)cc3)c(C)o2)cc1` (stereo not given) is inactive: 1.48%; for `Cc1ccc(CN(C(=O)c2ccc(OCC(C)C)cc2)c2ccccn2)o1` it is inactive: -0.561%; for `CCn1cc2c(n1)-c1c(oc(C(=O)Nc3ccc(Br)cc3F)c1C)CC2` it is inactive: -3.25%. Regarding `O=C(O)CC1c2ccccc2CCN1C(=O)Nc1cc(Cl)ccc1Cl` (stereo not given), the “activity change, negative = cytotoxicity” value is inactive: -5.87%. `Cc1ccc(N(CC(=O)N2CCN(c3cc(C)ccc3C)CC2)S(=O)(=O)c2c(C)nn(C)c2C)cc1`: the “activity change, negative = cytotoxicity” value is inactive: -2.32%. With `COc1ccc(C(=O)c2oc3ccccc3c2NC(=O)c2cccc(OC)c2)cc1` the figure was inactive: 2.07%; with `CCOC(=O)c1cc(-c2ccccc2)n(CCCC(=O)Nc2ccccc2C)c1C`, inactive: 1.39%; with `CCN(CC)CCOC(=O)c1ccc(Nc2c3c(nc4ccccc24)CCC3)cc1`, inactive: -17.1%. The figure for `COc1ccc(CNC(=O)C(CC(C)C)N2Cc3ccccc3C2=O)cc1` (stereo not given) is inactive: 6.03%; for `CC(C)CN(CCNC(=O)c1cc(-c2cccs2)nc2ccccc12)CC(C)C` it is inactive: 7.6%; for `CCN(CC)CCOC(=O)c1ccc(NC(=O)c2cc3c(s2)-c2ccccc2OC3)cc1` it is inactive: -3.7%.

As for `COc1ccc(CNC(=O)c2sc3nc4n(c(=O)c3c2C)CCCCC4)cc1`, the “activity change, negative = cytotoxicity” value was inactive: 3.13%. With `CCc1ccc(NC(=O)CN2C(=O)c3ccccc3Sc3ccc(C(=O)N4CCCC4)cc32)cc1`, the “activity change, negative = cytotoxicity” value was inactive: 0.0288%. The figure for `Clc1cccc(C2=NC(c3cccs3)=Nc3ccc(Br)cc3N2)c1` is inactive: -16%. The figure for `Cc1nc(-c2ccc(S(=O)(=O)Nc3ccc(Cl)c(C(F)(F)F)c3)cc2)co1` is inactive: 0.334%.
